Test results taken from patent US20140171510A1, “HO[…] AND/OR CONJUGATES OF AMPHETAMINE AND OTHER […] PROCESSES FOR MAKING AND USING THE SAME” (priority 2011, published 2014).

Assay: In vitro hydrolysis of the amide linkage (chemical stability)

Substance: l-homoarginine-d-amphetamine [hArg-Amp]
- chemical stability to in vitro hydrolysis of the amide linkage: chemically stable
